Measurements published in paper PMC5291247, “The histone chaperone Vps75 forms multiple oligomeric assemblies capable of mediating exchange between histone H3–H4 tetramers and Asf1–H3–H4 complexes” (Nucleic Acids Research, 2016).

Molecular target: histones H3–H4 from which native cysteine residues had been removed (Xenopus, UniProt P84233; P62799)
Assay: cross-linking; cross-linking analysis of Vps75 with Asf1 and H3-H4, SDS-PAGE (Supplementary Figure S4)
Conditions: both partners purified

stoichiometry N: 1 Asf1 per H3-H4 dimer
B1: globular, cysteine-free Asf1 (Asf1g […]) (domain or fragment)
chain: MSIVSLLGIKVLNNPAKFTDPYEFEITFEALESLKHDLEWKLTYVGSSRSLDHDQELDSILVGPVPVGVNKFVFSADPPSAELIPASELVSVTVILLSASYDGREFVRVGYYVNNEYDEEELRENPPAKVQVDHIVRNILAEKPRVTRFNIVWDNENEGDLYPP
